The source of these data is the supplement of paper PMC8285479.

Counter-ions that a name gives are not always drawn. ± gives the standard deviation of the averaged measurements. The full ranking holds about 1,900 compounds; the median of “normalised cell viability (NPI; 0 = phenylarsine oxide control, 1 = DMSO control)” is about 1, and the lowest 2% start at about 0.039. The list shows a part of the results.

The experiment has as its system NCI-H1944. The experiment in a line: normalised cell viability (NPI; 0 = phenylarsine oxide control, 1 = DMSO control) (fraction of DMSO control); NCI-H1944 is a non-small cell lung cancer line; higher = more viable cells (less compound toxicity). The following applies: 6 days.
Setting [1] is: glucocorticoid arm: hydrocortisone 2.75 uM co-treatment, compound 1 µM.
Setting [2] is: glucocorticoid arm: hydrocortisone 2.75 uM co-treatment, compound 5 µM.
[3] abbreviates: glucocorticoid arm: hydrocortisone 2.75 uM pre-treated 2 days and continued, compound 1 µM.
[4] abbreviates: glucocorticoid arm: hydrocortisone 2.75 uM pre-treated 2 days and continued, compound 5 µM.
Where [5] appears, read: glucocorticoid arm: vehicle, compound 1 µM.
Setting [6] is: glucocorticoid arm: vehicle, compound 5 µM.
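Note: CTB read-out in 384-well plates, mean of triplicate wells, normalised per plate against 1 µM phenylarsine oxide and 0.1% DMSO, compounds added 24 h after seeding.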

`COc1ccccc1N1CCN(CCCNc2c(C)c(=O)n(C)c(=O)n2C)CC1` [Urapidil, 5-Methyl-]: the normalised cell viability is, setting by setting: under setting [1], 1.01 ± 0.012; under setting [2], 1.01 ± 0.01; under setting [3], 1.01 ± 0.026; under setting [4], 1 ± 0.028; under setting [5], 1.01; under setting [6], 1.01.
`O=C(O)/C=C/C(O)c1ccc(Cl)cc1` (stereo unspecified) [NCS-356 sodium salt hydrate]: the normalised cell viability under setting [1] turned out to be 1.007 ± 0.0058; the normalised cell viability under setting [2] was 1.02 ± 0.01; the normalised cell viability under setting [3] came to 1.01 ± 0.01; the normalised cell viability under setting [4] turned out to be 1.04 ± 0.083; the normalised cell viability under setting [5] is 1.003 ± 0.0058; the normalised cell viability under setting [6] came out at 1.01 ± 0.018.
For `C[C@]12CCC(=O)C=C1CC[C@@H]1[C@@H]2CC[C@@]2(C)[C@H]1CC[C@]2(O)C(=O)CO` [Cortexolone], the normalised cell viability by setting is: under setting [1], 1.01 ± 0.015; under setting [2], 1 ± 0.022; under setting [3], 1.01 ± 0.025; under setting [4], 0.99 ± 0.018; under setting [5], 1.002 ± 0.0068; under setting [6], 0.985 ± 0.013.
Turning to `CCC1(c2ccccc2)C(=O)NCNC1=O` [Primidone], the normalised cell viability was determined as 1.002 ± 0.0068 under setting [1]; 1.013 ± 0.0058 under setting [2]; 1.01 ± 0.033 under setting [3]; 0.999 ± 0.019 under setting [4]; 1.002 ± 0.0076 under setting [5]; 0.989 ± 0.013 under setting [6].
`COc1cc(Nc2c(C#N)cnc3cc(OCCCN4CCN(C)CC4)c(OC)cc23)c(Cl)cc1Cl` [Bosutinib (SKI-606)]: the normalised cell viability was determined as 0.898 ± 0.046 under setting [1]; 0.848 ± 0.015 under setting [2]; 0.969 ± 0.015 under setting [3]; 0.942 ± 0.072 under setting [4]; 0.86 ± 0.016 under setting [5]; 0.336 ± 0.027 under setting [6].
Regarding `COc1cc(Nc2c(C#N)cnc3cc(OCCCN4CCN(C)CC4)c(OC)cc23)c(Cl)cc1Cl` [Bosutinib], the normalised cell viability under setting [1] came to 0.9847 ± 0.0085; the normalised cell viability under setting [2] was found to be 0.8487 ± 0.0055; the normalised cell viability under setting [3] was 1.007 ± 0.0058; the normalised cell viability under setting [4] is 0.958 ± 0.019; the normalised cell viability under setting [5] is 0.897 ± 0.03; the normalised cell viability under setting [6] is 0.644 ± 0.039.
For the molecule `C1CCC(N=C(NC23CC4CC(CC(C4)C2)C3)N2CCOCC2)CC1`, the normalised cell viability under setting [1] amounted to 0.983 ± 0.012; the normalised cell viability under setting [2] was 0.926 ± 0.018; the normalised cell viability under setting [3] stood at 0.997 ± 0.012; the normalised cell viability under setting [4] came out at 0.9845 ± 0.0064; the normalised cell viability under setting [5] was determined as 0.986 ± 0.013; the normalised cell viability under setting [6] turned out to be 0.984 ± 0.001.
Turning to `NC(=O)C1CCCc2c1[nH]c1ccc(Cl)cc21` (stereo unspecified) [EX 527 (Selisistat)], the normalised cell viability reads like this: under setting [1], 0.973 ± 0.0079; under setting [2], 0.996 ± 0.0027; under setting [3], 0.967 ± 0.016; under setting [4], 0.992 ± 0.032; under setting [5], 0.9907 ± 0.0086; under setting [6], 0.9903 ± 0.0055.
As to `NC(=O)C1CCCc2c1[nH]c1ccc(Cl)cc21` (stereo unspecified), the normalised cell viability runs as follows: under setting [1], 0.999 ± 0.019; under setting [2], 1.01 ± 0.026; under setting [3], 1.006 ± 0.0075; under setting [4], 0.988 ± 0.013; under setting [5], 1.01 ± 0.01; under setting [6], 1.02 ± 0.011.
On to `CO/N=C(\C(=O)N[C@@H]1C(=O)N2C(C(=O)O)=C(COC(C)=O)CS[C@H]12)c1csc(N)n1` [Cefotaxime sodium salt], for which the normalised cell viability worked out at 0.999 ± 0.036 under setting [1]; 1.01 ± 0.02 under setting [2]; 0.989 ± 0.021 under setting [3]; 1 ± 0.025 under setting [4]; 1.002 ± 0.0072 under setting [5]; 1.007 ± 0.0058 under setting [6].
For the molecule `Clc1ccc(C2(c3ccc(-c4cn[nH]c4)cc3)CCNCC2)cc1`, the normalised cell viability stood at 0.968 ± 0.012 under setting [1]; 0.9977 ± 0.0021 under setting [2]; 0.975 ± 0.011 under setting [3]; 1.006 ± 0.0075 under setting [4]; 0.9947 ± 0.0051 under setting [5]; 0.939 ± 0.015 under setting [6].
Consider `NC1(Cc2ccc(Cl)cc2)CCN(c2ncnc3[nH]ccc23)CC1`, for which the normalised cell viability was found to be 0.901 ± 0.034 under setting [1]; 0.602 ± 0.08 under setting [2]; 0.934 ± 0.014 under setting [3]; 0.68 ± 0.045 under setting [4]; 0.9813 ± 0.0087 under setting [5]; 0.827 ± 0.068 under setting [6].
Take `O=C(O)CCC(C(=O)O)N1C(=O)c2ccccc2C1=O` [L-Glutamic acid, N-phthaloyl-]: the normalised cell viability by setting is: under setting [1], 1.01 ± 0.01; under setting [2], 1 ± 0.023; under setting [3], 0.9973 ± 0.0025; under setting [4], 1.03 ± 0.023; under setting [5], 1.003 ± 0.0058; under setting [6], 1.02 ± 0.017.
With `Cc1cc(C(C)Nc2ccccc2)c2nc(N3CCOCC3)cc(=O)n2c1` (stereo unspecified), the normalised cell viability was found to be 0.931 ± 0.038 under setting [1]; 0.796 ± 0.022 under setting [2]; 0.935 ± 0.0092 under setting [3]; 0.875 ± 0.03 under setting [4]; 0.979 ± 0.013 under setting [5]; 0.95 ± 0.017 under setting [6].
In the case of `Cc1cc(Nc2cc(N3CCN(C)CC3)nc(Sc3ccc(NC(=O)C4CC4)cc3)n2)n[nH]1` [VX-680 (Tozasertib, MK-0457)], the normalised cell viability was determined as 0.89 ± 0.01 under setting [1]; 0.633 ± 0.02 under setting [2]; 0.9457 ± 0.0051 under setting [3]; 0.794 ± 0.041 under setting [4]; 0.639 ± 0.029 under setting [5]; 0.408 ± 0.031 under setting [6].
Regarding `Cc1cc(Nc2cc(N3CCN(C)CC3)nc(Sc3ccc(NC(=O)C4CC4)cc3)n2)n[nH]1` [VX-680 (MK-0457, Tozasertib)], the normalised cell viability under setting [1] turned out to be 0.849 ± 0.018; the normalised cell viability under setting [2] turned out to be 0.6277 ± 0.0055; the normalised cell viability under setting [3] was determined as 0.891 ± 0.014; the normalised cell viability under setting [4] came to 0.743 ± 0.0066; the normalised cell viability under setting [5] worked out at 0.614 ± 0.026; the normalised cell viability under setting [6] is 0.451 ± 0.0098.
